# Measured values reported in the supplement of paper PMC11417369.
# ± gives the standard deviation of the averaged measurements. This is one part of the list.
# Test system: PfAP2-I AP2 domain 3 (GST-tagged)
# Assay: gcPBM binding intensity (ln(normalized median fluorescence intensity)); higher = stronger DNA binding
# How it was run: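 Plasmodium falciparum DNA-binding domains carrying a GST tag were expressed in E. coli and applied for 1 h, at about 25 μg on average, to an Agilent 4 × 180k array. The array held primer-extended double-stranded 36-bp intergenic genomic probes together with negative controls, and binding took place in 1× PBS with 1% milk, 0.2 mg/ml BSA, 0.5% salmon testes DNA and 0.03% Triton X-100. An Alexa488 anti-GST antibody detected bound protein, and the array was scanned at 488 nm. Binding intensity is taken as the highest Masliner-normalised natural-log median intensity across replicate spots of either probe orientation.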
row,Sequence,gcPBM binding intensity (ln)
1,GTAAATATTCATATATGTACTTATGATATTTGCTAA [XGTACX_site6828],7.59 ± 0.3
2,TAATACTTATATAAAGGTACACAATTTAACCGAATG [XGTACX_site7173],7.74 ± 0.59
3,ACATATATATATATATATTGATTTATTTATTTCCCT [CACACA_negctrl_site659],7.96 ± 0.43
4,ATATATATATATAAATGTACAAAAATATATATGTAA [XGTACX_site4531],9.35 ± 0.15
5,CTTCCTTAGGAATGTACACACATATAAAATATGTTG [CACACA_site6355],7.83 ± 0.3
6,AAGAAAGAGTTCTGTTGTACAAAATATTAATATGTA [XGTACX_site7213],7.79 ± 0.4
7,AATACTCAAAAGAATCGTACAAACAACACTCCCACG [XGTACX_site7564],8.19 ± 0.15
8,TTACATGTAAAAGGTACACACATTAGATATACAAAT [CACACA_site6651],7.95 ± 0.68
9,TATCATACCTTTTAATGTACACACATTTCTTTTTTG [XGTACX_site1655],8.04 ± 0.64
10,TGAAATAACCCATGTGCATGCACTTCAATAACTGAA [TGCATGCA_site1041],9.54 ± 0.47
11,TATAAATTAAAATCAGTGCATATTTTGAAAAACCTC,9.19 ± 0.41
12,TATAAATTATAAATTGCACACATATTTTTATATTTA [CACACA_site8974],8.49 ± 0.057
13,ATATTATTATTAGTTTCACACATTTAATGAAACTAA [CACACA_site5677],7.81 ± 0.41
14,TGGAGGTCAGTTCACAGTACCCAGAAACTCTACGAG [XGTACX_site2007],7.29 ± 0.54
15,TATATATATATATATTGTACATATTAATATTAGAAA [XGTACX_site8923],9.2 ± 0.27
16,ATTACCATATAAAACACACAAACATACATACATACA [CACACA_site3729],8.81 ± 0.51
17,TGTATGTTAAATACAACACACAAAAAAAAACAAGTT [CACACA_site4324],7.7 ± 0.71
18,TACCACTTTCGAAGTAGTACATGGCTTTTTTTTTTT [XGTACX_site8379],7.86 ± 0.52
19,GTTATAATTTAGTCAAGTACATGCGTATGTATATTC [XGTACX_site3763],7.83 ± 0.4
20,TATACAGATAAATACACACACATATATATATATATA [CACACA_site4178],9.43 ± 0.45
21,ATATATATATGTGTGTGTACATATGATTTCGCACTT [XGTACX_site4449],9.42 ± 0.13
22,TAATATATATTATATACACACATATATATATATATA [CACACA_site428],9.4 ± 0.38
23,CACAGAAATATTCTTATACACACTGTTCTTATATTC [CACACA_site288],7.63 ± 0.61

row,Sequence,gcPBM binding intensity (ln)
1,TTTTACGTGAGTAATACACACATATAAGTTTATATA [CACACA_site4120],7.68 ± 0.58
2,TATAACTTTTTTAATACACACAAATATTTATTTATA [CACACA_site7425],7.89 ± 0.24
3,GGCATACACGAACACACACACACACGCACATATATA [CACACA_site6426],8.49 ± 0.4
4,GTATAAAAATTTAGGAGTACAATATATTTATAATAT [XGTACX_site2127],8.055 ± 0.064
5,TCTAATTTAAAATACACACACATATCTATAATATAT [CACACA_site7029],7.63 ± 0.28
6,TTTTTGTATTCTCCGGACTACATTATGTTGTAAATG [CACACA_negctrl_site691],7.84 ± 0.78
7,GTAATAAAAAATTAATGTACTTTATATAATATATTA [XGTACX_site5935],7.58 ± 0.28
8,TTTTCTTTCTTGTTTCGTATATTATAAAAAAAAAAG [CACACA_negctrl_site854],7.87 ± 0.46
9,GTATTTTGCATAAATGCATGTAAATATATACCTACC [TGCATGCA_site957],8.3 ± 0.92
10,TATTTGGGTATTTTTACACACATTAAAATATATATA [CACACA_site5800],7.63 ± 0.67
11,TATTTGTAAAGACATGCATGGTACTTTTAAAACATA [TGCATGCA_site7],7.79 ± 0.49
12,TGTAGATAAAATAAACGTACGTATTGATTTTTTTCA [XGTACX_site1610],7.42 ± 0.47
13,CAGTTGTTAATTTGTGTGCACCAAATATTATACATA,11 ± 0.33
14,ACATATGAATATAATACACACTTGTATTCTTAATAT [CACACA_site5085],7.78 ± 0.5
15,ATAATTCCATAAAATAGACACACGAATGTATAATAT [CACACA_site477],7.71 ± 0.67
16,TTAATATTTGTTCTGATCCTTTTATTCAACTTTTTT [CACACA_negctrl_site536],7.62 ± 0.81
17,TGGTAATACCCATACACACACACATACACATATATA [CACACA_site8877],7.93 ± 0.37
18,AATGACATTCTTACACGTACAAAATAAAAAATAAAA [XGTACX_site6932],7.89 ± 0.59
19,ATTTATTTTATAATATATAAATGATATATCTTATTA [CACACA_negctrl_site66],7.31 ± 0.45
20,TATATATTATATTCATGTACGTAAAAATTTTGAATA [XGTACX_site6734],7.985 ± 0.064
21,CCATATGATATATATTGTACATTATATATTATTTCT [XGTACX_site1697],7.58 ± 0.47
22,TATGTTGTTTATTTAGTGCATATTTAAATATTATAA [GTGCAC_site9601],10.16 ± 0.078
23,GGACTTTATAAAAATGGTACACGCAATTCTATAATC [XGTACX_site6515],7.73 ± 0.69

row,Sequence,gcPBM binding intensity (ln)
1,TAATATATAAAAAGATGTACTTTTGCAAGTTCCTTT [XGTACX_site8519],7.54 ± 0.67
2,ATATATATATATGTATGTACGTATGTATGTATGAAT [XGTACX_site4857],9.26 ± 0.42
3,GGTACATACAAACACACACACAAAAAAAAAAAAATA [CACACA_site1577],7.86 ± 0.18
4,TGTACAGTAAATACAACACACATTTGTATAAATATA [CACACA_site4705],7.79 ± 0.48
5,TATTGTATAAAAATAACATGCAATCCTTATACTGCT [TGCATGCA_site345],7.42 ± 0.73
6,GTGTATTTTGTGCGCACACACATGCAAAAAGAAATA [CACACA_site6660],10.7 ± 0.34
7,GGTAGGTGAATATATACACACATATATTATATATAT [CACACA_site1984],8.36 ± 0.52
8,TACACATGTTTAAAATGTACGTTTTATAACACACAC [XGTACX_site8229],8.86 ± 0.2
9,AAAAAAAATTAAGCATGTATAAATATATATATATAT [CACACA_negctrl_site1540],9.26 ± 0.32
10,TTTTACAAGTATTGATAAATAAGAAATATATAAAAT [CACACA_negctrl_site529],7.58 ± 0.59
11,AGAGGAAAAATAAAAGGAAAAAAGAAAATAATATTG [CACACA_negctrl_site852],7.45 ± 0.73
12,ATATATTACAATATATGTACTTAATTTGCTTAAATA [XGTACX_site7912],7.49 ± 0.41
13,ATAATATTTTAGAGCAGTACACTTTTATATTTATTG [XGTACX_site5728],8.14 ± 0.61
14,TAAAACAGAATGAGGAGTACAAAAAGAAGAAAAGGG [XGTACX_site1246],8.35 ± 0.52
15,AAAATAAATATTACATGTACATATATATATATATAT [XGTACX_site8492],9.28 ± 0.37
16,ATCATTTTTAATAAATGTACAAGTTTTAAAAAAAAA [XGTACX_site7340],7.7 ± 0.6
17,AAAAAAACAACATGCACACGCACACCCAAAAAAAGC [CACACA_site72],8.7 ± 0.59
18,GTAATCCACAAACACACACACATACACATATATATA [CACACA_site2728],8.36 ± 0.63
19,TTATGCATAAAAGGTGGTACTCCGTATATACATTCT [XGTACX_site4354],7.92 ± 0.66
20,AACTATAAAAGTTTTACACACTGTTTTTAAATAATG [CACACA_site7686],7.76 ± 0.81
21,TATTTATTTATAAATGCATGTCGCTCTTTTTATTAC [TGCATGCA_site626],7.66 ± 0.68
22,ATATATATATATATGTGTACATATAAGATAGAAGAA [XGTACX_site3198],9.46 ± 0.36
23,ATTATTATAGATATAACACACATAATTACATACTTA [CACACA_site6837],7.97 ± 0.14

row,Sequence,gcPBM binding intensity (ln)
1,TCCATAAATAATTGTAGTACACATACTATGTGACAT [XGTACX_site7268],8 ± 0.24
2,AAAAGTAAAAAAAGCACACACGAAAAAAAATAAAAA [CACACA_site5264],8.13 ± 0.52
3,TATTAAAAAAAAAAATAAAAAAATAAAATAAAATAA [CACACA_negctrl_site580],7.44 ± 0.69
4,TATATTTACTCTAAGTGTACATATTATTTTATAATA [XGTACX_site2046],7.61 ± 0.22
5,TTTTTTTTTTTTATTTGTACACATTTTCATATTTTT [XGTACX_site4406],8.08 ± 0.67
6,TATATATATATGTGCACACATAAAGATATTATTTTT [CACACA_site3733],10.2 ± 0.042
7,AATATATCATAATGATGTACAAGTAAAACCGTTACA [XGTACX_site4280],7.66 ± 0.61
8,AATATATATATATATACATGCATATATTCCTTCCTT [TGCATGCA_site890],7.81 ± 0.72
9,ATTCTTTTAAACAGTACACACACACCGATATATATA [CACACA_site8213],8.44 ± 0.71
10,TTTGTGCCTATAAATTAACACACAGAAATATATAGA [CACACA_site8175],9.025 ± 0.064
11,AAAAACTTATATGATACACACGATAAACAAAATAAA [CACACA_site1039],7.91 ± 0.42
12,TAACACATAAATAAATATATACATATATATAAAATA [CACACA_negctrl_site375],7.3 ± 0.27
13,ATAAAATAAAATTGGTGTACTTTTGATAAAATAAAA [XGTACX_site4264],7.84 ± 0.28
14,GATCTATATATCATTACACACTTGAATTACTTAAAA [CACACA_site21],7.64 ± 0.67
15,CAAAAATACATTATAATAATATGCACAATAATAAAT [XGTACX_negctrl_site263],9.96 ± 1.1
16,ACAAAATTTACAAAATGTACAAAGTATGTGTTTTAT [XGTACX_site6462],7.58 ± 0.49
17,ATATTTTTTTTTTTCACACACATTTATATTGTATTA [CACACA_site5695],8.01 ± 0.79
18,AGAAAAAAGAGGGATACACACAAACATATATTTATA [CACACA_site7122],7.66 ± 0.53
19,CACCCTTTGTTTTAGAGTACATATGTATATACGTAA [XGTACX_site7964],8.03 ± 0.51
20,GATTAAAATCAAAGGTGTACGCACAAATAAGTCCCA [XGTACX_site4360],8.34 ± 0.71
